In the supplement of paper PMC9446081 one finds relative growth data, which are given here for 62 compounds.

About 220 (0.56%) of roughly 39,000 compounds showed activity. Some of the results follow.
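Also: static incubation at 37 °C against the wild-type strain, values averaged over two biological replicates.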

The experiment deals with Escherichia coli K-12 BW25113. The experiment can be described thus: relative growth (OD600 normalised to plate interquartile mean) (fraction); higher = less growth inhibition, active = 0.2 or less. Particulars: 50 µM; LB; incubation time: overnight (16-24 h).
Take `Cc1ccccc1S(=O)(=O)N1C[C@@H](O)COC[C@H]2O[C@@H](CC(=O)N3CCOCC3)CC[C@@H]21`: the relative growth was inactive: 0.994.
For `O=C(C[C@H]1CC[C@H]2[C@@H](COC[C@H](O)CN2S(=O)(=O)c2cccc(Cl)c2)O1)N1CCOCC1`, the relative growth was inactive: 1.
The result for `C[C@H]1CN([C@@H](C)CO)S(=O)(=O)c2ccc(-c3cccnc3)cc2O[C@H]1CN(C)C(=O)c1ccc2c(c1)OCO2` reads inactive: 0.992; that for `C[C@H]1CN([C@@H](C)CO)C(=O)c2cc(NS(=O)(=O)c3ccc(F)cc3)ccc2O[C@@H]1CN(C)C(=O)Nc1cccc2ccccc12`, inactive: 1.01; that for `CC(C)NC(=O)N[C@@H]1C=C[C@H](CC(=O)NCCCN(C)C)O[C@H]1CO`, inactive: 0.971.
Next, `C[C@H]1CCCCO[C@H](CN(C)C(=O)CCC(F)(F)F)[C@@H](C)CN([C@@H](C)CO)C(=O)c2cc(NC(=O)c3ccccc3)ccc2O1`: inactive: 0.976.
The result for `C[C@H](CO)N1C[C@H](C)[C@H](CN(C)Cc2ccc3c(c2)OCO3)Oc2ccc(NS(=O)(=O)c3cn(C)cn3)cc2C1=O` reads inactive: 0.987.
With `CN(C)CCO[C@@H]1CC[C@@H]2[C@H]1OCCN2S(C)(=O)=O`, the relative growth is inactive: 0.981.
Next, `Cn1cnc(CCNC(=O)C[C@H]2CC[C@H]3[C@@H](COC[C@@H](O)CN3C(=O)Nc3ccc(Cl)cc3)O2)c1`: inactive: 0.953.
The result for `C[C@H](CO)N1C[C@H](C)[C@H](CN(C)C(=O)Nc2cccc3ccccc23)OCc2cnnn2CCCC1=O` reads inactive: 1.01; that for `COc1ccc(CN(C)C[C@H]2OCCCC[C@@H](C)Oc3ccc(NC(=O)CCCCCC(=O)Nc4ccccc4N)cc3C(=O)N([C@H](C)CO)C[C@@H]2C)cc1`, inactive: 0.978; that for `C[C@@H]1CCCCO[C@H](CN(C)C(=O)CCC(F)(F)F)[C@H](C)CN([C@@H](C)CO)C(=O)c2cc(NS(=O)(=O)c3cccs3)ccc2O1`, inactive: 0.995.
The result for `O=c1[nH]c(=S)[nH]nc1O` reads inactive: 1.02; that for `COc1cccc(-c2ccc3c(c2)O[C@@H](CN(C)C(=O)C2CCC2)[C@@H](C)CN([C@H](C)CO)S3(=O)=O)c1`, inactive: 1.02.
Take `C[C@@H]1CCCCO[C@@H](CN(C)C(=O)Nc2cccc3ccccc23)[C@H](C)CN([C@H](C)CO)C(=O)c2cc(NS(=O)(=O)c3ccc(Cl)cc3)ccc2O1`: the relative growth is inactive: 1.04.
Next, `Cl.O=C(O)C=Cc1ccc(Cn2ccnc2)cc1`: inactive: 1.12.
Next, `COc1ccc(NC(=O)N(C)C[C@H]2Oc3ccc(NC(=O)Cn4cnnn4)cc3C(=O)N([C@H](C)CO)C[C@H]2C)cc1`: inactive: 0.982.
The result for `COc1cccc(C(=O)Nc2ccc3c(c2)C(=O)N(C)[C@H]2CC[C@@H](CC(=O)NCC4CC4)O[C@@H]2CO3)c1` reads inactive: 1.01; that for `C[C@@H]1CN([C@H](C)CO)C(=O)c2cc(Br)cnc2O[C@@H]1CN(C)S(=O)(=O)c1ccccc1`, inactive: 0.986; that for `CCCN1C[C@@H](C)[C@H](OC)CN(C)C(=O)c2ccc(NS(=O)(=O)c3cn(C)cn3)cc2OC[C@@H]1C`, inactive: 1.
For `C[C@@H]1CCCCO[C@@H](CN(C)Cc2ccc(C(=O)O)cc2)[C@H](C)CN([C@H](C)CO)C(=O)c2cc(NC(=O)Cc3ccccc3)ccc2O1`, the relative growth was inactive: 0.95.
As to `COc1ccc(S(=O)(=O)N(C)C[C@@H]2OCCCC[C@H](C)Oc3ccc(NC(=O)Nc4ccc(C(F)(F)F)cc4)cc3C(=O)N([C@@H](C)CO)C[C@H]2C)cc1`, the relative growth is inactive: 1.04.
The result for `O=C(O)C=C(O)C(=O)O` reads inactive: 1.02; that for `COC1=CC(=O)c2ccccc2C1=O`, inactive: 0.885; that for `C[C@H](CO)N1C[C@H](C)[C@@H](CN(C)S(=O)(=O)c2cn(C)cn2)Oc2c(NS(=O)(=O)c3ccc(F)cc3)cccc2C1=O`, inactive: 1.01.
Next, `CC(C)CC#Cc1ccc2c(c1)O[C@H](CN(C)S(=O)(=O)c1ccc(F)cc1)[C@H](C)CN([C@H](C)CO)S2(=O)=O`: inactive: 1.04; `C[C@@H]1CN([C@H](C)CO)C(=O)c2cccc(NC(=O)Nc3ccccc3)c2O[C@@H]1CN(C)Cc1ccc(C(=O)Nc2ccccc2N)cc1`: inactive: 1.02.
Regarding `COc1ccc(S(=O)(=O)N(C)C[C@@H]2Oc3ncc(C#CC4(O)CCCC4)cc3C(=O)N([C@H](C)CO)C[C@H]2C)cc1`, the relative growth is inactive: 1.01.
Consider `COc1ccc(CCN2C(=O)[C@@]3(Cc4ccccc42)c2ccccc2C(=O)N(Cc2ccccc2)[C@H]3c2ccc(COC(=O)NCCCCCC(=O)NO)cc2)cc1`, for which the relative growth was inactive: 0.992.
Next, `O=C(C[C@H]1C[C@H]2c3cc(NC(=O)Nc4ccccc4F)ccc3O[C@H]2[C@@H](CO)O1)NCc1ccc(Oc2ccccc2)cc1`: inactive: 1.01.
The result for `Cc1noc(C)c1NC(=O)N(C)C[C@H]1OCCCC[C@H](C)Oc2ccc(NC(=O)Nc3ccc4c(c3)OCO4)cc2C(=O)N([C@H](C)CO)C[C@@H]1C` reads inactive: 1.01; that for `C[C@H](CO)N1C[C@H](C)[C@H](CN(C)S(=O)(=O)c2ccc(F)cc2)Oc2ncc(C#Cc3cccc(F)c3)cc2C1=O`, inactive: 1.01.
In the case of `CSc1c(-c2ccc(Cl)cc2)[nH]c2ccccc12`, the relative growth was inactive: 0.981.
The result for `O=c1cc(-c2ccccc2O)oc2ccc(O)cc12` reads inactive: 0.99; that for `CC(C)CC#Cc1ccc2c(c1)O[C@H](CN(C)C(=O)c1cccnc1)[C@@H](C)CN([C@H](C)CO)S2(=O)=O`, inactive: 0.991; that for `COCC#Cc1ccc2c(c1)O[C@@H](CN(C)C(=O)C1CCCCC1)[C@@H](C)CN([C@H](C)CO)S2(=O)=O`, inactive: 0.999.
The result for `C[C@@H]1CN([C@@H](C)CO)C(=O)c2cc(NS(C)(=O)=O)ccc2O[C@@H]1CN(C)S(=O)(=O)c1ccc(Cl)cc1` reads inactive: 0.997; that for `C[C@@H]1CN([C@@H](C)CO)C(=O)c2cc(NS(C)(=O)=O)ccc2O[C@@H]1CN(C)S(=O)(=O)c1ccc(F)cc1`, inactive: 1.01; that for `COCC#Cc1ccc([C@H]2[C@H](CO)N3C(=O)CN(C(=O)c4cccnc4)C[C@@H]23)cc1`, inactive: 0.996.
Next, `COCCNC(=O)C[C@H]1CC[C@@H]2[C@H](COC[C@@H](O)CN2C(=O)Nc2ccc3c(c2)OCO3)O1`: inactive: 1.01; `COc1cccc(S(=O)(=O)Nc2ccc3c(c2)[C@H]2C[C@H](CC(=O)NC4CCCCC4)O[C@@H](CO)[C@H]2O3)c1`: inactive: 0.985; `CC[C@H](C)[C@H]1O[C@]2(C=C[C@@H]1C)C[C@@H]1C[C@@H](C/C=C(\C)[C@@H](O[C@H]3C[C@H](OC)[C@@H](O[C@H]4C[C@H](OC)[C@@H](NC(C)=O)[C@H](C)O4)[C@H](C)O3)[C@@H](C)/C=C/C=C3\CO[C@@H]4[C@H](O)C(C)=C[C@@H](C(=O)O1)[C@]34O)O2`: inactive: 0.925.
With `COC(=O)CCC(=O)CN`, the relative growth was inactive: 1.01.
The result for `COc1ccc(cc1)S(=O)(=O)N1C[C@]2(C1)CN([C@@H](CO)c1c2c2ccc(cc2n1C)OC)C(=O)c1cccnc1` reads inactive: 1.01; that for `Cc1noc(C)c1S(=O)(=O)Nc1ccc2c(c1)CC(=O)N([C@@H](C)CO)C[C@@H](C)[C@H](CN(C)Cc1ccc3c(c1)OCO3)O2`, inactive: 1.03.
For the compound `CN1CCN(C(=O)C[C@@H]2CC[C@H]3[C@@H](COC[C@@H](O)CN3Cc3ccc(Oc4ccccc4)cc3)O2)CC1`, the relative growth was inactive: 0.977.
Next, `CC1(C)S[C@@H]2[C@H](NC(=O)C3(N)CCCCC3)C(=O)N2[C@H]1C(=O)O`: inactive: 1; `COc1cccc(OC)c1OCCNCCO`: inactive: 0.999.
The result for `Clc1ccc([C@@H](c2ccccc2Cl)C(Cl)Cl)cc1` reads inactive: 0.975; that for `O=C(C[C@H]1CC[C@H](NC(=O)C2CC2)[C@@H](CO)O1)NCCCN1CCOCC1`, inactive: 0.978; that for `CCSC1=C(C#N)C(=O)N[C@@H](CO)S1`, inactive: 0.987.
Regarding `COc1ccc([Si](C)(C)[C@@H]2[C@@H](CC(=O)N3Cc4ccccc4C[C@H]3CO)O[C@]3(C(=O)N(Cc4cccc(N5CCC5=O)c4)c4ccccc43)[C@H]2C)cc1`, the relative growth is inactive: 1.03.
The result for `COc1ccc(CNC(=O)C[C@@H]2C[C@H]3c4cc(NC(=O)NC5CCCC5)ccc4O[C@H]3[C@@H](CO)O2)cc1` reads inactive: 0.998; that for `C[C@@H]1CN([C@H](C)CO)C(=O)c2cc(C#Cc3cccnc3)cnc2O[C@H]1CN(C)S(=O)(=O)c1ccccc1F`, inactive: 1; that for `N#C[C@@H]1[C@@H](c2ccc(C#Cc3ccccn3)cc2)[C@H](CO)N1C(=O)CN1CCOCC1`, inactive: 0.988.
Regarding `C[C@@H]1CN([C@@H](C)CO)C(=O)c2cc(NS(=O)(=O)c3ccc(F)cc3)ccc2O[C@@H](C)CCCCO[C@H]1CN(C)Cc1ccc2c(c1)OCO2`, the relative growth is inactive: 1.01.
Turning to `C[C@@H]1CN([C@@H](C)CO)C(=O)c2cc(NC(=O)Cc3cn(C)c4ccccc34)ccc2O[C@@H]1CN(C)C(=O)Nc1cccc2ccccc12`, the relative growth is inactive: 1.02.
The result for `CC(C)N1CC=C[C@@]23O[C@@H]4C=CCOC(=O)[C@@H]4[C@H]2C(=O)N([C@@H](C)CO)[C@@H]3C1=O` reads inactive: 0.97; that for `CC(C)(C)[S@](=O)N1Cc2cc(C(=O)NCc3ccccn3)nc(-c3cccc(-c4ccccc4F)c3)c2[C@@H]1CCO`, inactive: 1.02; that for `C[C@H](CO)N1C[C@H](C)[C@@H](CN(C)S(=O)(=O)c2ccc(F)cc2)Oc2c(NC(=O)C3CC3)cccc2C1=O`, inactive: 0.984.
The result for `C[C@H](CO)N1C[C@H](C)[C@@H](CN(C)Cc2ccc(-c3ccccc3)cc2)Oc2ccc(NC(=O)Nc3ccc(F)cc3)cc2C1=O` reads inactive: 0.952.
Next, `C=C/C=C/[C@@H]1C(=C)CN2[C@H]1[C@H](Cc1ccccc1)OC(=O)[C@@H]2Cc1ccc(-n2cc(-c3cccc(/C=C/C(=O)NO)c3)nn2)cc1`: inactive: 0.999.
